# Results reported in PubChem BioAssay AID504845 (National Center for Advancing Translational Sciences (NCATS), 2011).
# About 150 (0.038%) of roughly 390,000 compounds were called active. This list was built around the results that the source calls inconclusive (neither active nor inactive); the mix of calls is not that of the screen. Calls come from the whole dose curve; as a rule, active = well fitted inhibition curve with a large enough effect; inconclusive = small, poorly fitted or top-dose-only effect; inactive = no such curve, though single readings can be large or run the other way. Potencies beside an inconclusive call are fits to weak or partial responses and may not hold up.
# Target: Regulator of G-protein signaling 4 (Homo sapiens) (UniProt P49798)
# Test: Inhibitors of Regulator of G Protein Signaling (RGS) 4: qHTS; note: nearly all actives have a fitted effect of over 75% in size
# Details: Transcreener GDP fluorescence polarization, RGS4-accelerated GTP hydrolysis; series mostly up to 114 µM
# Summary of the method: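 MLSMR compounds (23 nl, pin-transferred) preincubated 10 min at room temperature with a 500nM (2x) first reagent, then RGS4 at 900nM (2x) plus Transcreener GDP mix added; fluorescence polarization (620/688 nm) read before and after 90 min at 30 °C.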
# Potency is the fitted concentration of half-maximal effect; tags give direction and shape of the fitted curve.
# UniProt P49798, sequence (P49798 whole entry, looked up): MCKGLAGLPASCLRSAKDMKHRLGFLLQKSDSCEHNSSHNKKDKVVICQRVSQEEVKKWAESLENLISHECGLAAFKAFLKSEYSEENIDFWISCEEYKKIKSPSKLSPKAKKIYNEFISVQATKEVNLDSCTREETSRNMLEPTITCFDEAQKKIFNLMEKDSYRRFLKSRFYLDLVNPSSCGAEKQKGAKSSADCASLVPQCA
row,SMILES,Potency
1,COC(=O)C(C)(N)Cc1ccc(O)cc1 (stereo not drawn),"inconclusive: 15 µM [inhibitor, single point]"
2,O=c1c2sc3ccccc3c2n(Cc2ccccc2Cl)c(=O)n1Cc1ccccc1,"inconclusive: 31.6 µM [inhibitor, full curve, poor fit]"
3,Cc1cccc(Nc2ccc(C(=O)N3CCOCC3)cn2)c1,inactive
4,CCOc1cccc(/C=N/N2C(=O)CSC2=S)c1O,"inconclusive: 56.2 µM [inhibitor, partial curve, poor fit]"
5,CCOC(=O)c1ccc(N/N=C/c2cc(Br)cc([N+](=O)[O-])c2O)cc1,"inconclusive: 50.1 µM [inhibitor, partial curve, poor fit]"
6,CCOc1ccc(C(=O)Nc2cccc(-n3cnnn3)c2)cc1OCC,inactive
7,CC(=O)Nc1ccc(-c2nnn(CC(=O)Nc3ccc4c(c3)OCO4)n2)cc1Cl,"inconclusive: 50.1 µM [inhibitor, partial curve, poor fit]"
8,O=C(Cn1c(=O)c2ccccc2n(CC(=O)Nc2ccc(Cl)cc2)c1=O)NCCc1ccccc1,"inconclusive: 44.7 µM [inhibitor, partial curve, poor fit]"
9,O=C(/C=C/c1cccs1)N1CCN(Cc2ccc3c(c2)OCO3)CC1,inactive
10,Cc1ccc(OCC(=O)NNC(=O)C2CCN(c3ncnc4sc(C)c(C)c34)CC2)cc1,inactive
11,COc1ccc(C(=O)Nc2cccc(-c3cc4ccccc4oc3=O)c2)cc1[N+](=O)[O-],"inconclusive: 79.4 µM [inhibitor, partial curve, poor fit]"
12,Cc1ccc(NNC(=O)c2ccno2)cc1C,"inconclusive: 50.1 µM [inhibitor, partial curve, poor fit]"
13,COc1cccc(-n2c(N)c(C(=O)Nc3c(C)n(C)n(-c4ccccc4)c3=O)c3nc4ccccc4nc32)c1,"inconclusive: 79.4 µM [inhibitor, partial curve, poor fit]"
14,c1cncc(-c2nc(NCc3cccs3)c3ccccc3n2)c1,"inconclusive: 17.8 µM [inhibitor, full curve, poor fit]"
15,S=C(Nc1ccccc1)N1CCCCCC1,"inconclusive: 89.1 µM [inhibitor, single point]"
16,CCN(c1ccc(NC(=O)COC(=O)/C=C/c2cccs2)cc1)C(C)C,"inconclusive: 89.1 µM [inhibitor, partial curve, poor fit]"
17,CCOC(=O)c1[nH]c2cc(OC)c(OC)cc2c1NC(=O)C(C)N1CCN(Cc2ccccc2)CC1 (stereo not drawn),inactive
18,CCOc1ccc(OCC)c(-c2c(=O)n(OCc3ccccc3Br)c3ccccc3[n+]2[O-])c1,inactive
19,Cc1ccc(C=C2C(=O)c3ccccc3C2=O)o1,"inconclusive: 79.4 µM [inhibitor, partial curve, poor fit]"
20,CC1=CC2C(C(O)CC3(C)C2CC(C)C32OCOC23COCO3)C2(C)C/C(=C\O)C(=O)C=C12 (stereo not drawn),"inconclusive: 89.1 µM [inhibitor, partial curve, poor fit]"
21,Oc1c(CN2CCCC(C(F)(F)F)C2)cc(Cl)c2ccccc12 (stereo not drawn),"inconclusive: 79.4 µM [inhibitor, partial curve, poor fit]"
22,C=C(C)COc1ccc(-c2[nH]ncc2Oc2cccc(OC)c2)c(O)c1,inactive

row,SMILES,Potency
1,O=C(N/N=C/c1ccc(O)cc1)c1ccncc1,"inconclusive: 89.1 µM [inhibitor, single point]"
2,COc1ccccc1-n1cnnc1SC(C)C(=O)Nc1ccc(NC(C)=O)cc1 (stereo not drawn),inactive
3,COC(=O)CN1C(=O)[C@H]2[C@@H](c3ccc(C)o3)N3C(=O)CN(Cc4ccc(-c5ccccc5)cc4)C(=O)[C@@]3(C)[C@H]2C1=O,"inconclusive: 56.2 µM [inhibitor, partial curve, poor fit]"
4,CC(C)OCCCNC(=O)Cn1ncc2c(=O)oc3ccccc3c21,"inconclusive: 89.1 µM [inhibitor, single point]"
5,COc1cc2c(cc1OC)C(C)N(C(=O)c1cc(Cl)nc(Cl)c1)CC2 (stereo not drawn),inactive
6,O=C(Nc1ccc(Br)cc1)c1csc(-c2ccncc2)n1,"inconclusive: 89.1 µM [inhibitor, single point]"
7,N/C(=N\OC(=O)COc1ccc(Cl)cc1)c1cccnc1,inactive
8,CCOC(=O)C(Cc1ccc(O)c([N+](=O)[O-])c1)N1C(=O)c2ccccc2C1=O (stereo not drawn),"inconclusive: 89.1 µM [inhibitor, single point]"
9,Nc1ccc(-c2nc(-c3ccccc3)nc3ccccc23)cc1,inactive
10,CCN(CC(=O)Nc1ccc2c(c1)OCCO2)Cc1nc2cc(Cl)ccc2c(=O)[nH]1,inactive
11,COc1ccccc1-n1cc(-c2ccccc2)[nH]c1=S,"inconclusive: 50.1 µM [inhibitor, partial curve, poor fit]"
12,COc1cc2sc3ccc(C#Cc4ccc(N)cc4)cc3c(=O)c2cc1OC,inactive
13,O=C(c1cc(-c2ccco2)nn1-c1cccc(Cl)c1)N1CCCCC1,"inconclusive: 44.7 µM [inhibitor, partial curve, poor fit]"
14,O=C(NCc1ccc(Cl)cc1)C1CCN(c2nn3cc(-c4ccc(F)cc4)nc3s2)CC1,inactive
15,Cn1ccc(=S)c2ccccc21,"inconclusive: 31.6 µM [inhibitor, full curve, poor fit]"
16,CC(=O)c1ccc(NC(=S)N2CCN(CCN3C(=O)c4cccc5cccc(c45)C3=O)CC2)cc1,inactive
17,Cc1ccc2ccc(C(Nc3cccc(C(F)(F)F)c3)c3cccnc3)c(O)c2n1 (stereo not drawn),inactive
18,COC(=O)C1NN=C(C(=O)c2ccccc2)C1c1ccccc1 (stereo not drawn),inactive
19,CCN(CC)S(=O)(=O)c1ccc(NN)nc1,"inconclusive: 50.1 µM [inhibitor, partial curve, poor fit]"
20,CCc1ccc(NC(=O)C2CCCN(S(C)(=O)=O)C2)cc1 (stereo not drawn),"inconclusive: 31.6 µM [inhibitor, partial curve, poor fit]"
21,COc1ccc(CN(C)C(=O)c2ccc(NC(=O)CC3SC(N4CCCC4)=NC3=O)cc2)c(OC)c1OC (stereo not drawn),"inconclusive: 100 µM [inhibitor, single point]"
